In the supplement of paper PMC3334620:
Over roughly 33,000 sequences, “E-score (-0.5 to 0.5)” has its median near -0.016; the highest 2% begin near 0.32. This is one part of the list.

Biological target: T1, Stp1 (UniProt B3LFK1)
T1 sequence: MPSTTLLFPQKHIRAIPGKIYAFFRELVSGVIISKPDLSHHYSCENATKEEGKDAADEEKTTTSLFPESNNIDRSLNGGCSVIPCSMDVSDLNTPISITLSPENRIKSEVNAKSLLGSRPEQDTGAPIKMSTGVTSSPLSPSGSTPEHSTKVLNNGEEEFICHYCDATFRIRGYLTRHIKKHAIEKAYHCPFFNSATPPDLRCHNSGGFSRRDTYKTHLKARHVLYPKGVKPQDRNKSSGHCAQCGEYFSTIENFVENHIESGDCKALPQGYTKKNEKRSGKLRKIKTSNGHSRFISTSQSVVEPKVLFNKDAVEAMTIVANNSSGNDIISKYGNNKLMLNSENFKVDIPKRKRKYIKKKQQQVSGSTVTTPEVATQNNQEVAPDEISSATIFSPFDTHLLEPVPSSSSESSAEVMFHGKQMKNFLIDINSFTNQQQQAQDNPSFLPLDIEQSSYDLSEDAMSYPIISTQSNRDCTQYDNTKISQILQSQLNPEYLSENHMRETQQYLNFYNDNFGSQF
Test: PBM E-score (8-mer binding enrichment) (E-score (-0.5 to 0.5)); higher = stronger / more preferred TF binding; most listed sequences are background and not binding sites
Details: protein concentration: 200 nM; construct: GST-full length
In short: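 Using PURExpress in vitro transcription/translation, GST-tagged yeast transcription factors were made in full-length or DNA-binding-domain form. These were applied at about 100-200 nM to double-stranded universal all-10-mer Agilent arrays, and bound protein was detected with fluorescent anti-GST. Scans were normalised with masliner before the Universal PBM Analysis Suite assigned E-scores to ungapped eight-base words pooled with their reverse complements.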

| Sequence | PBM E-score |
| --- | --- |
| CAGACCCC | -0.381 |
| ACCTCTGG | -0.2 |
| AAACCCTA | -0.104 |
| CGCTCATA | 0.0012 |
| AGATACCC | -0.106 |
| AAGCCCGG | -0.298 |
| GACGAATC | 0.0357 |
| AGTAACAG | -0.0252 |
| GAACGATA | -0.0613 |
| ACATGAGC | -0.0781 |
| CGGGGGCA | -0.209 |
| CAACCAAG | 0.0324 |
| CTCGAAAA | 0.0859 |
| CAAAAACG | 0.0607 |
| ATGCCCAC | 0.144 |
| CGGTTCTA | 0.15 |
| CTCCAACC | 0.00283 |
| CACCGCCA | -0.17 |
| GCGTCGCC | 0.21 |
| CAATTGCC | 0.0963 |
| GGATCACA | 0.00764 |
| CCCCAGGG | -0.162 |
| TAGAGAGA | -0.0644 |
| GTGATAAC | -0.0988 |
| ACAAATCA | 0.141 |

| Sequence | PBM E-score |
| --- | --- |
| AGAGATGG | 0.0839 |
| AGCTCAGC | -0.314 |
| AACCATCG | 0.0301 |
| ACGCAGGG | -0.127 |
| CGTTTAAG | 0.0149 |
| AAGCGGGG | -0.0958 |
| CGCACTGC | 0.22 |
| CTCGGTGC | 0.0846 |
| AAATTTAC | 0.171 |
| GAAAAACC | 0.145 |
| CAGTTAGG | -0.125 |
| AGTCTTAG | -0.106 |
| AAATAGGG | -0.0486 |
| GGCACTTA | 0.243 |
| TACGCCGA | 0.142 |
| CTCACGGC | 0.282 |
| ATTGTACC | 0.0595 |
| CACAGCTG | -0.0909 |
| GGTACCGA | -0.258 |
| CCGGCCCC | -0.348 |
| GTTATACA | 0.0473 |
| GAACAGTA | 0.11 |
| GGGTAAAC | -0.115 |
| CAGAATGG | -0.0168 |
| ACCAGGGT | -0.398 |

| Sequence | PBM E-score |
| --- | --- |
| ACCTTGAG | -0.0698 |
| AGACGTCT | -0.219 |
| AAATGTGT | 0.158 |
| AGCGAATA | 0.00608 |
| CTGATGTA | -0.0384 |
| TCAATGCA | -0.0548 |
| GTGAATCA | -0.128 |
| AACTGTAC | -0.0967 |
| GTAATTCA | 0.196 |
| GCCATGAC | -0.218 |
| AAGCTATC | 0.039 |
| AAAAGCGT | -0.00328 |
| CAGGAACG | 0.0246 |
| ATGTACGA | -0.0524 |
| ACGGGTAG | 0.0167 |
| CGACAGGC | -0.0711 |
| ACCTCCAG | -0.105 |
| ATGAAGTG | 0.0265 |
| GTAACCGA | -0.0281 |
| ATCAGTGC | -0.0307 |
| CTGAGAGA | -0.143 |
| AGCGCTCC | -0.103 |
| GGAGCACA | -0.122 |
| ATGGTGTA | -0.108 |
| GGTGCGTA | -0.113 |

| Sequence | PBM E-score |
| --- | --- |
| AAAATTTG | 0.0391 |
| AACACGCG | 0.127 |
| AGCGTAAA | 0.0234 |
| ATGCTAAA | -0.0375 |
| CAAAAATC | -0.00222 |
| CCACAGCA | 0.155 |
| CATCTTGC | 0.152 |
| ACCGCAAT | 0.133 |
| AGATAACT | -0.103 |
| ATTTGCCA | -0.0687 |
| CATATGCC | 0.0974 |
| GCGGATCA | 0.123 |
| TCTCACCA | 0.00991 |
| GGTCAATA | -0.136 |
| ATGGTTCG | -0.0957 |
| GAAGGTCC | -0.245 |
| ACACCTGG | -0.221 |
| CGATGGGA | -0.0937 |
| CCAGGGAA | -0.0576 |
| GTGTCACA | 0.119 |
| ACGTTACC | -0.0394 |
| TGGGTTAA | -0.219 |
| ATTCAATC | 0.089 |
| GTTCCAGA | -0.0346 |
| CGTTGATA | 0.293 |

| Sequence | PBM E-score |
| --- | --- |
| GGGCCAAA | -0.0489 |
| CACTGTGG | -0.106 |
| TAGACTAA | -0.132 |
| AGGAGATG | -0.111 |
| GCACATCA | 0.042 |
| GCAGCAGC | 0.0301 |
| ACGACGCG | 0.129 |
| ACGTACAG | -0.0778 |
| ACCACGCA | -0.187 |
| CATACGCC | 0.126 |
| AGTGACTC | -0.0307 |
| AGTTCTAA | -0.0232 |
| AACCGACG | 0.0748 |
| AAACCATC | -0.0403 |
| CCCCAATA | -0.0985 |
| GAGTTGGC | -0.00796 |
| AGTAAGGC | 0.163 |
| CCGGAAGA | -0.0332 |
| ACGTGAGA | -0.0985 |
| CTGGATAA | 0.0621 |
| GCTTTTTA | 0.173 |
| ACTTATGA | -0.0427 |
| AGAGAGTG | -0.168 |
| ACCTTGGA | -0.138 |
| AAAGGTCC | -0.118 |

| Sequence | PBM E-score |
| --- | --- |
| ATCCGGGC | -0.258 |
| AATCCCCG | -0.187 |
| GTTCGATA | 0.0816 |
| TAAGTCGA | -0.123 |
| AGGCCCCC | -0.448 |
| GTTCTCGA | -0.0119 |
| AGGACGTG | -0.0256 |
| AATTAATT | 0.0367 |
| CTAGTGTC | -0.162 |
| AATGCGTA | 0.0424 |
| GTGCGTGA | 0.123 |
| ACTCTTTA | -0.0603 |
| CAAGGCTA | 0.275 |
| ACATCCTA | -0.0487 |
| AGCGACTA | -0.193 |
| CTCGCGCC | 0.295 |
| CTTGCATC | -0.0708 |
| ATGCCGCC | 0.386 |
| CTAATAAC | 0.0233 |
| AGTATAGG | -0.0433 |
| AAAAGACC | -0.0771 |
| CATGCAAC | 0.122 |
| CCAGCGAC | -0.138 |
| GAACGCAA | 0.0984 |
| ACGGAAAT | 0.271 |

| Sequence | PBM E-score |
| --- | --- |
| ACTGCGTC | -0.0165 |
| ACTCGTTC | -0.0868 |
| ATCGTCGG | -0.215 |
| CTTGCGAA | 0.199 |
| TAGCACCA | -0.0587 |
| GCGAGTCA | -0.0455 |
| CGCAACTC | 0.0991 |
| ACCCAGGT | -0.344 |
| AGGTTAGG | -0.182 |
| AACAAAAA | 0.171 |
| ATACTAGG | -0.0795 |
| AAAAGGTG | -0.042 |
| ATCACGCG | 0.211 |
| AAGGGCCC | -0.16 |
| CCCCCGAG | -0.358 |
| AGGCCCGG | -0.402 |
| AGAAGTTA | -0.0113 |
| ATCATGGG | -0.172 |
| AGCGTACA | -0.198 |
| CCCAATCG | 0.0048 |
| ACCAGCGT | -0.17 |
| CACAAGCA | -0.0847 |
